# Results: PubChem BioAssay AID588855 (National Center for Advancing Translational Sciences (NCATS), 2011)
# The campaign covered roughly 410,000 compounds. About 5,000 (1.2%) were called active. The shares of active, inactive and inconclusive entries below differ from those in the screen. Calls follow the shape of the dose curve; as a rule, active = well fitted inhibition curve with a large enough effect; inconclusive = small, poorly fitted or top-dose-only effect; inactive = no such curve, though single readings can be large or run the other way. Where the call is inconclusive, the potency comes from a doubtful curve fit.
# Experiment: qHTS for Inhibitors of TGF-b; also: nearly all actives have a fitted effect of over 65% in size
# Conditions: HepG2 CAGA-GFP TGF-b/SMAD3 reporter, GFP fluorescence, 18 h, TGF-beta stimulated, 500 pg/mL final; series mostly up to 46.1 µM; activity, negative = inhibition: at the top concentration
# How it was run: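 HEPG2 CAGA-GFP reporter cells (1000/well, DMEM with 1% FBS) received compounds, then recombinant TGF-beta at 500 pg/mL final for 18 hours at 37 degrees C. Per-cell GFP summed per well was normalised to unstimulated and stimulated DMSO controls before curve fitting.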
# % is scaled to controls: 0 for no effect and ±100 for the full control effect; potency is read from the fitted curve at half-maximal effect; tags tell the direction and shape of the fitted curve.
SMILES,Potency,"activity, negative = inhibition"
CCOC(=O)c1c(Nc2cccc(O)c2)nnc(-c2ccccc2)c1-c1ccccc1,"inconclusive: 25.1 µM [inhibitor, single point]",–
Cc1cc(C(=O)Cn2ncc(Cl)c(Cl)c2=O)c(C)n1CC(F)(F)F,"inconclusive: 35.5 µM [inhibitor, single point]",–
O=C(Nc1nnc(S(=O)(=O)N2CCCCCC2)s1)c1ccc(Br)cc1,"inconclusive: 2.51 µM [inhibitor, full curve, poor fit]",–
Oc1ccc(Nc2ncnc3c2oc2ccccc23)cc1,"inconclusive: 0.1 µM [inhibitor, full curve, poor fit]",–
Cc1ccccc1C(=O)N=c1sccn1C,–,inactive: -9.24%
COc1c(Cl)cc(C(=O)Nc2cccc(-c3nc4ccccc4[nH]3)c2)cc1Cl,"inconclusive: 31.6 µM [inhibitor, single point]",–
Cc1ccc(NC2(c3nnnn3-c3c(C)cccc3C)CCCCC2)cc1,"inconclusive: 15.8 µM [inhibitor, single point]",–
COc1cc(OC)c(N(C)S(=O)(=O)c2cccc(C(=O)NCc3cccs3)c2)cc1Cl,–,inactive: -14.5%
O=C(N/N=C1\CC2CC=CC12)c1ccc(O)cc1 (centres undefined),"inconclusive: 35.5 µM [inhibitor, single point]",–
Nc1ncnc2c1ncn2[C@@H]1O[C@H](C(=O)N[C@H](CO)Cc2ccc(O)cc2)[C@@H](O)[C@H]1O,–,inactive: -4.94%
Nc1nc(=S)c2ncn(C3OC(CO)CC3O)c2[nH]1 (centres undefined),"inconclusive: 1.78 µM [inhibitor, full curve, poor fit]",–
Cc1ccc(NC(=O)CCC(=O)N2CCOCC2)nc1,"inconclusive: 2.82 µM [inhibitor, partial curve]",–
COc1cc(OC)c(/C=N/NC(=O)c2ccncc2)c(OC)c1,–,inactive: 14.8%
Cc1ccc(-c2nnc(Nc3ccc(CC(N)=O)cc3)c3ccccc23)cc1S(=O)(=O)NCCO,–,inactive: -25.1%
COc1ccc(-c2nnc(SCc3ccc(C(=O)O)cc3)n2C)cc1OC,–,inactive: 6.53%
Cc1cc(=O)n2c(C(=O)Nc3ccc(C)c(Cl)c3)c(C(=O)Nc3ccccc3)sc2n1,"inconclusive: 35.5 µM [inhibitor, partial curve, poor fit]",–
CC(C)C1C(=O)N(Cc2cn(CC3CCCCC3)nn2)CCS(=O)(=O)N1Cc1ccc(-c2ccccc2)cc1 (centres undefined),"inconclusive: 12.6 µM [inhibitor, partial curve]",–
CCN1CCN(C(=O)c2ccc3c(c2)N(Cc2ccc(Cl)cc2)C(=O)c2ccccc2S3(=O)=O)CC1,"inconclusive: 0.282 µM [inhibitor, full curve, poor fit]",–
CCC(=O)Nc1c(C#N)c2nc3ccccc3nc2n1C1CCCCC1,–,inactive: -2.31%
CNc1nc(NCCCN2CCCC2=O)c2sccc2n1,"inconclusive: 10 µM [inhibitor, partial curve]",–
Cn1c(=O)n(CCc2ccccc2)c(=O)c2c1nc1n2CCCN1c1ccccc1,"inconclusive: 35.5 µM [inhibitor, single point]",–
CC(NC(=O)CN(c1cccc(C(F)(F)F)c1)S(=O)(=O)c1ccc(Cl)c([N+](=O)[O-])c1)c1ccccc1 (centres undefined),"inconclusive: 35.5 µM [inhibitor, single point]",–

SMILES,Potency,"activity, negative = inhibition"
CCCN1C(=O)/C(=C/c2ccco2)SC1=Nc1ccc(OC)cc1,–,inactive: -17.7%
C=CCn1c(SCC(=O)Nc2sc(C)c(C)c2C(=O)OCC)nnc1-c1sc(N)nc1C,"inconclusive: 11.2 µM [inhibitor, single point]",–
Fc1cccc(Nc2ncnc3[nH]ncc23)c1,"inconclusive: 0.631 µM [inhibitor, partial curve, poor fit]",–
COC(=O)[C@]1(Cc2ccccc2)N[C@H](CN(C)C(=O)Nc2ccc(F)cc2)[C@@H]2C(=O)N(Cc3ccccc3)C(=O)[C@@H]21,"inconclusive: 5.62 µM [inhibitor, full curve, poor fit]",–
Cc1ccc(S(=O)(=O)N(CC2CO2)c2cccc([N+](=O)[O-])c2)cc1 (centres undefined),"inconclusive: 35.5 µM [inhibitor, single point]",–
Cc1ccc(S(=O)(=O)N(C)C[C@@H]2Oc3ccc(NC(=O)CCC(F)(F)F)cc3CC(=O)N([C@@H](C)CO)C[C@@H]2C)cc1,"inconclusive: 14.1 µM [inhibitor, single point]",–
CCC1=NN(C(=O)c2ccc(Cl)cc2)C(O)(c2ccccc2)C1 (centres undefined),"inconclusive: 31.6 µM [inhibitor, single point]",–
CC(O)(c1ccccc1)c1nc(-c2csc3ccccc23)cs1 (centres undefined),"inconclusive: 17.8 µM [inhibitor, single point]",–
O=C(/C=C/c1cccs1)N1CCC2(CC1)Oc1ccc(Cl)cc1C(=O)C21CC(c2cccnc2)=NO1 (centres undefined),–,inactive: -14.9%
Cc1ccccc1SCC(=O)NCCCn1ccnc1,–,inactive: -8.83%
COC(=O)/C(C#N)=C/c1ccc(-c2ccc(S(N)(=O)=O)cc2)o1,"inconclusive: 20 µM [inhibitor, single point]",–
Cc1cc(NC(=O)c2cn(C3CCCCC3)c(=O)c3c2c2ccccc2n3C)no1,"inconclusive: 6.31 µM [inhibitor, single point]",–
Cc1cccc2nc(-c3cccc(NC(=O)c4ccc(Cl)cc4)c3)cn12,"inconclusive: 20 µM [inhibitor, partial curve, poor fit]",–
CN(C)CCNc1ncnc2c1sc1nc(N3CCCC3)c3c(c12)CC(C)(C)OC3,"inconclusive: 35.5 µM [inhibitor, single point]",–
O=C(CCSc1ccc(Cl)cc1)N1CCN(c2ncccn2)CC1,–,inactive: -14.8%
COc1cccc2sc3cc(C#CC4(O)CCCCC4)ccc3c(=O)c12,active: 7.08 µM,–
CC(=O)c1ccc(-c2cnc3c(NC=O)cc(-c4ccc(C(=O)N5CCOCC5)cc4)cn23)cc1,"inconclusive: 10 µM [inhibitor, partial curve]",–
O=C1C(C2=NC(c3ccccn3)C3C(=O)N(c4ccc(OC(F)(F)F)cc4)C(=O)C23)=C(O)c2ccccc21 (centres undefined),–,inactive: -1.88%
CSc1cccc(NS(=O)(=O)c2ccc3[nH]cc(C(=O)N4CCCC4)c(=O)c3c2)c1,"inconclusive: 35.5 µM [inhibitor, single point]",–
CC1CCN(Cc2cnc(Cl)s2)CC1,"inconclusive: 5.01 µM [inhibitor, single point]",–
CCOc1cccc(OCCCOc2cccc3cccnc23)c1,"inconclusive: 35.5 µM [inhibitor, single point]",–
CC(=O)NC(c1cccs1)c1cc(Cl)c2ccccc2c1O (centres undefined),"inconclusive: 25.1 µM [inhibitor, single point]",–

SMILES,Potency,"activity, negative = inhibition"
O=S(=O)(Nc1ccc(O)c(Sc2nc3ccccc3s2)c1)c1cccc2ccccc12,"inconclusive: 17.8 µM [inhibitor, single point]",–
CCOc1ccccc1OCCC(=O)NNC(=O)Cn1nc(C)cc1C,–,inactive: 1.05%
O=C(/C=C/c1ccccc1)N1CCC(Cc2ccccc2)CC1,"inconclusive: 0.112 µM [inhibitor, full curve, poor fit]",–
CN(C)CCNc1oc(COc2ccc(-c3ccccc3)cc2)nc1C#N,"inconclusive: 35.5 µM [inhibitor, single point]",–
Cc1cc(Cl)c(S(=O)(=O)N2CCN(c3ccc(F)cc3)CC2)cc1OCC(N)=O,"inconclusive: 5.62 µM [inhibitor, single point]",–
O=C(COc1ccc2c(c1)OCO2)Nc1ccc2c(c1)oc1ccccc12,"inconclusive: 17.8 µM [inhibitor, single point]",–
O=C(NCCC(F)(F)F)C1Cc2c(-c3ccccc3Oc3ccccc3)ccnc2O1 (centres undefined),–,inactive: -3.82%
CC(C)(C)C(=O)Cn1c(=O)n(CCCCCC(=O)NCc2ccc3c(c2)OCO3)c(=O)c2sccc21,"inconclusive: 2.51 µM [inhibitor, partial curve, poor fit]",–
Cc1cc(C)nc(SCc2nc3ncccn3c2Br)n1,"inconclusive: 0.1 µM [inhibitor, full curve, poor fit]",–
COc1cc(CNCCO)cc(Cl)c1OCc1ccccc1Cl,active: 11.2 µM,–
O=c1[nH]c(O)c(/C=C2\C=Nc3ccccc32)[nH]1,–,inactive: 9.38%
Cc1nn(C(=O)c2ccco2)c(C)c1Sc1ccc(Br)cc1,"inconclusive: 35.5 µM [inhibitor, single point]",–
O=C(Nc1cccc(S(=O)(=O)N2CCCCC2)c1)C1COc2ccccc2O1 (centres undefined),"inconclusive: 12.6 µM [inhibitor, partial curve, poor fit]",–
COc1ccc(CCNC(=O)c2cc(C(=O)c3cc(Cl)ccc3O)cn(CCc3ccc(OC)cc3)c2=O)cc1,"inconclusive: 0.794 µM [inhibitor, full curve, poor fit]",–
CN1C(C(=O)NCCc2cccs2)CC2Cn3c(nc4cc5ccccc5cc43)C21 (centres undefined),"inconclusive: 3.98 µM [inhibitor, partial curve, poor fit]",–
O=C(/C=C/c1ccc2c(c1)OCO2)NCCSCc1cccc(Cl)c1,"inconclusive: 35.5 µM [inhibitor, single point]",–
CCOC(=O)c1cnc(Nc2nc3ccccc3o2)nc1CSC(=S)N1CCCCC1,"inconclusive: 0.891 µM [inhibitor, partial curve, poor fit]",–
CC(C)c1c(C(=O)N/N=C/c2cccc(OCc3ccc(F)cc3)c2)nnn1-c1nonc1N,"inconclusive: 22.4 µM [inhibitor, single point]",–
CCCc1cc(=O)oc2cc(OCC(=O)NCC(O)c3ccccc3)ccc12 (centres undefined),–,inactive: 0.57%
CSc1cccc(NC(=O)NCc2cccc(CNC(=O)Nc3cccc(SC)c3)c2)c1,"inconclusive: 11.2 µM [inhibitor, partial curve, poor fit]",–
